Test results published in PubChem BioAssay AID686979 (National Center for Advancing Translational Sciences (NCATS), 2013).
In all, about 420,000 compounds went through this assay and about 50,000 (12%) were called active. This list was built around the results that the source calls inconclusive (neither active nor inactive); the mix of calls is not that of the screen. Calls come from the whole dose curve; as a rule, active = well fitted inhibition curve with a large enough effect; inconclusive = small, poorly fitted or top-dose-only effect; inactive = flat fitted curve, though single readings scatter. No potency is given beside an inconclusive call; the fits are too rough.

Experiment: qHTS for Inhibitors of human tyrosyl-DNA phosphodiesterase 1 (TDP1): qHTS in cells in presence of CPT; note: nearly all actives have a fitted effect of over 55% in size
Conditions: chicken DT40 Tdp1-/-;hTDP1 cells + 20 nM CPT, ATP luminescence, 48 h; activity change, negative = growth inhibition: at 46.2 µM (top of the series) unless noted
Procedure, shortened: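 Chicken DT40 Tdp1-/- cells stably complemented with human TDP1 were seeded at 400 cells/well in medium containing 20 nM camptothecin, exposed to pin-transferred compounds, and grown at 37 °C for at least 48 hr. Viability was read as ATP luminescence.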
% is set by controls: 0 for no effect and ±100 for the full control effect; potency is the fitted concentration of half-maximal effect; tags give direction and shape of the fitted curve.

SMILES | Potency | activity change, negative = growth inhibition
CCc1ccc2c(c1)C(C)=CC(C)(C)N2 | inconclusive [inhibitor, single point] | 
COc1ccc2[nH]c3c(N4CCN(Cc5ccc6c(c5)OCO6)CC4)ncnc3c2c1 | active: 14.6 µM | 
Cc1ccc(/C=C/C(=O)Nc2ccccc2C(N)=O)cc1 | active: 20.6 µM | 
Cc1ccc2nc(NCc3ccccc3)c3nnnn3c2c1 |  | inactive: -21.4%
CC1=C(C(=O)N2CCOCC2)CC(CC(=O)NC(c2ccccc2)c2ccccc2)C(=O)N1CCC1=CCCCC1 (configuration not stated) | inconclusive [inhibitor, single point] | 
COc1ccc(-c2noc(N3CCC(C(=O)N4CCN(c5ccccc5OC)CC4)CC3)n2)cc1 | active: 10.3 µM | 
O=C(Nc1ncc(Cc2ccccc2)s1)C1CCN(C(=O)c2ccco2)CC1 | inconclusive [inhibitor, single point] | 
O=C1c2ccccc2C(Nc2ccc3c(c2)OCCO3)N1Cc1ccc2c(c1)OCO2 (configuration not stated) | inconclusive [inhibitor, single point] | 
COc1nn(CC(=O)N2N=C(C(F)F)CC2(O)C(F)F)cc1[N+](=O)[O-] (configuration not stated) |  | inactive: 0.9%
Cc1ccc(NC(=S)NNC(=O)Nc2ccccc2)cc1 | inconclusive [inhibitor, partial curve] | 
COc1cccc(C(=O)CN2C(=O)C(C)(C)Oc3ccc(C(=O)N4CCCCCC4)cc32)c1 | inconclusive [inhibitor, single point] | 
CCOC(=O)c1cnc2c(C)c(Cl)ccc2c1NCCc1ccc(OC)c(OC)c1 | inconclusive [inhibitor, single point] | 
O=C(CSc1n[nH]c(-c2ccccn2)n1)Nc1ccc(F)cc1 | inconclusive [inhibitor, single point] | 
Cc1cc(Cl)cc(C)c1OCCn1ccnc1 | active: 5.17 µM | 
CN(C)c1ccc(CN(C(=O)c2ccco2)C2CCS(=O)(=O)C2)cc1 (configuration not stated) |  | inactive: -2.38%
O=C(Nc1ccc([N+](=O)[O-])cc1)/C(=C/c1cccc([N+](=O)[O-])c1)NC(=O)C1CCCCC1 | inconclusive [inhibitor, single point] | 
COCOc1cc(O)c2c(=O)c(OCOC)c(-c3ccc(OCOC)c(OCOC)c3)oc2c1 | inconclusive [inhibitor, single point] | 
COc1ccccc1CNC(=O)Cn1c(=O)oc2cc(S(=O)(=O)N3CCCC3)ccc21 | active: 13 µM | 
COc1cc(C(=O)N2CCCCC2)ccc1OCC(=O)Nc1ccc(F)cc1 | inconclusive [inhibitor, single point] | 
O=C(Cn1nnc2ccccc21)NC1CCCCC1 |  | inactive: -15.7%
O=C(CSc1n[nH]c(=O)[nH]c1=O)Nc1ccc(Br)cc1Br |  | inactive: -11.8%
COc1cc(C(=O)NNc2nc3cc4c(cc3s2)OCO4)cc(OC)c1OC | inconclusive [inhibitor, single point] | 
CCOC(=O)c1ccc(NC(=O)C2CC(=O)NC(=Nc3ccc(C)c(C)c3)S2)cc1 (configuration not stated) | inconclusive [inhibitor, partial curve, poor fit] | 
COc1ccccc1CNC(=O)c1cccc(N2CCCS2(=O)=O)c1 |  | inactive: -21.3%

SMILES | Potency | activity change, negative = growth inhibition
Fc1ccc(-c2nnn(Cc3nc4ccccc4s3)n2)cc1 |  | inactive: 5.09%
COc1ccccc1N1CCN(CCS(=O)(=O)c2cc(Cl)ccc2Cl)CC1 | inconclusive [inhibitor, single point] | 
COc1ccc(-n2nc(C(=O)NCC(=O)N(C)Cc3ccccc3)c3ccccc3c2=O)cc1 |  | inactive: -21.9%
O[C@H]1C[C@H](c2ccccc2)N(Cc2cccs2)C[C@@H]1n1cc(C2CC2)nn1 | inconclusive [inhibitor, partial curve, poor fit] | 
CC1CCC(NC(=O)c2cc(S(=O)(=O)N3CCCCC3)c[nH]2)CC1 (configuration not stated) | inconclusive [inhibitor, single point] | 
COc1ccc(C(=O)Nc2ccccc2N2CCCCC2)cc1[N+](=O)[O-] | inconclusive [inhibitor, partial curve, poor fit] | 
CCCn1c(SCC(=O)NC2CCC(C)CC2)n[nH]c1=O (configuration not stated) |  | inactive: -14.4%
CCc1ccc(CNc2ccc3c(c2)ncn3CC)cc1 | inconclusive [inhibitor, single point] | 
Cc1ccc(N(C(=O)c2ccco2)C(C(=O)NC2CCCC2)c2cccnc2)cc1C (configuration not stated) |  | inactive: -6.26%
Cc1nc2cc(C(=O)O)ccc2s1 |  | inactive: 1.22%
C=CCn1c(SCc2ccc(C(=O)Nc3nccs3)cc2)nnc1-c1ccc(C)c(Cl)c1 | inconclusive [inhibitor, single point] | 
NC(CO)c1csc(NC(=O)Nc2cccc(Cl)c2)n1 (configuration not stated) |  | inactive: -6.56%
COc1ccc(-c2[nH][nH]c(=O)c2NC(=O)c2ccccn2)cc1 |  | inactive: -25%
CC(=O)c1c(C)[nH]c(C(=O)OCCOc2ccccc2)c1C | inconclusive [inhibitor, partial curve, poor fit] | 
O=C(Nn1c(C2CCCCC2)nc2ccccc2c1=O)c1ccc(Cl)c([N+](=O)[O-])c1 | inconclusive [inhibitor, single point] | 
CCCCN(C)CCNC(=O)c1ccc(Cn2c(=O)[nH]c3cc(OC)c(OC)cc3c2=O)cc1 | inconclusive [inhibitor, partial curve] | 
COc1ccc2c(Cl)c(C(=O)N/N=C/c3cccnc3)sc2c1 |  | inactive: -2.33%
O=C(c1cccs1)N1CCN(Cc2ccccc2)CC1 |  | inactive: -0.999%
CNCC(O)COc1cccc(OC)c1 (configuration not stated) |  | inconclusive: -32.7% [inhibitor]
Cc1ccc(CSC2=CS(=O)(=O)c3ccccc3N2)cc1 | inconclusive [inhibitor, single point] | 
O=C(NC1CCCCC1)c1n[nH]c2c1CCCCC2 | inconclusive [inhibitor, partial curve] | 
COc1ccc(-c2noc(N(c3ccc(F)c(Cl)c3)c3nc(-c4ccc(OC)c(OC)c4)no3)n2)cc1OC |  | inactive: 1.06%
COc1ccc(N2CCN(C(=O)Cc3ccc(Br)cc3)CC2)cc1 |  | inactive: -21.8%
